# According to the BET-seq Pho4 binding data (Le et al. 2018):
# The list shows a part of the results. These are noisy estimates, calculated here from bound and input reads.
# Biological target: T1, Pho4 (S. cerevisiae) (UniProt P07270)
# T1 sequence: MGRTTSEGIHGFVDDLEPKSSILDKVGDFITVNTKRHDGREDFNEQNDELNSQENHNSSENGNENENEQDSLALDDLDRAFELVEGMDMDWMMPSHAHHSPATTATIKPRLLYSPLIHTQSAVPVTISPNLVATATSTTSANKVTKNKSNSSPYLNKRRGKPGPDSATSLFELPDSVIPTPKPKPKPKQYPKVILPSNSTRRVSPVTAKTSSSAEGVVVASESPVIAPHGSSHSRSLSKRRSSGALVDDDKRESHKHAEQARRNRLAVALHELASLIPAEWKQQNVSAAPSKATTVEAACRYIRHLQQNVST
# Assay: relative binding free energy (BET-seq); higher = weaker binding
# Conditions: reference: library average
row,Sequence,relative binding free energy
1,TGAGTCACGTGTGTTG,0.13 kcal/mol
2,GGAGGCACGTGGCAGG,-0.11 kcal/mol
3,CTTATCACGTGGTGTT,0.08 kcal/mol
4,TACACCACGTGGTGTG,-0.1 kcal/mol
5,AGAAACACGTGAAGTG,0.29 kcal/mol
6,TCTTACACGTGGTGTC,0.09 kcal/mol
7,TGGGGCACGTGATTAC,-0.01 kcal/mol
8,TTAGTCACGTGCATTT,0.27 kcal/mol
9,TGGAGCACGTGTGGGT,-0.03 kcal/mol
10,TAAAGCACGTGTGCTG,-0.04 kcal/mol
11,ATTTCCACGTGAGGTG,0.26 kcal/mol
12,TGGGTCACGTGCAATT,0.18 kcal/mol
13,TGGGACACGTGTATAT,0.13 kcal/mol
14,AGGCGCACGTGGGAAA,-0.08 kcal/mol
15,AGTAGCACGTGGAGGA,-0.14 kcal/mol
16,TTAGTCACGTGATCAT,0.11 kcal/mol
17,AAGGTCACGTGAGAAG,0.32 kcal/mol
18,GGATACACGTGGGAGC,0.18 kcal/mol
19,CTGGTCACGTGGAGCT,0.09 kcal/mol
20,AGGTGCACGTGAGAAA,0.28 kcal/mol
21,AGGCGCACGTGAAGTT,0.21 kcal/mol
22,TTATGCACGTGAATTT,0.27 kcal/mol
23,TCATACACGTGTGTAT,0.06 kcal/mol
24,ATTGGCACGTGGATTT,-0.08 kcal/mol
25,TCGGACACGTGGCGGT,0.04 kcal/mol
26,ATTAGCACGTGGAGCG,-0.11 kcal/mol

row,Sequence,relative binding free energy
1,GTGTCCACGTGGGTGG,-0.04 kcal/mol
2,AAGTACACGTGGGTTG,0 kcal/mol
3,TGAATCACGTGCTGGG,0.09 kcal/mol
4,ATAAACACGTGATTGA,0.18 kcal/mol
5,AGTATCACGTGTGGTT,0.23 kcal/mol
6,GTGAGCACGTGGTTGG,-0.2 kcal/mol
7,AAGTTCACGTGAACGT,0.46 kcal/mol
8,GTTGGCACGTGGGCAC,-0.28 kcal/mol
9,GAGCTCACGTGTTATG,0.39 kcal/mol
10,TTTGACACGTGAGTGA,0.1 kcal/mol
11,TGGATCACGTGATAGG,0.25 kcal/mol
12,CTGATCACGTGTGGGC,0.17 kcal/mol
13,GTTATCACGTGTGGTA,0.27 kcal/mol
14,GCCGGCACGTGGAAGG,-0.04 kcal/mol
15,AAATTCACGTGGGCGT,0.38 kcal/mol
16,TGTGGCACGTGTTTGT,-0.07 kcal/mol
17,TTTAGCACGTGGATAG,-0.04 kcal/mol
18,TTGATCACGTGGTTCG,0.25 kcal/mol
19,GTGTCCACGTGGATAG,0.1 kcal/mol
20,GTTGTCACGTGATTAA,0.2 kcal/mol
21,TTTGGCACGTGGGGGC,-0.22 kcal/mol
22,TATTGCACGTGGTTTG,-0.13 kcal/mol
23,AGTGACACGTGGTTTC,0 kcal/mol
24,GGGGGCACGTGTTACA,-0.18 kcal/mol
25,TTGGGCACGTGAAAGT,0.21 kcal/mol
26,TGGTCCACGTGTGATG,0.03 kcal/mol

row,Sequence,relative binding free energy
1,TATGGCACGTGTGGTA,-0.01 kcal/mol
2,AATTTCACGTGCGTGA,0.24 kcal/mol
3,GGATGCACGTGATGTG,0.19 kcal/mol
4,CGTGGCACGTGATGGC,0.1 kcal/mol
5,TATATCACGTGCTGCT,0.17 kcal/mol
6,ATACTCACGTGGTAGT,0.1 kcal/mol
7,GGGATCACGTGGGACT,0.05 kcal/mol
8,GGATCCACGTGTTGGT,0.24 kcal/mol
9,AATTTCACGTGCGTTG,0.18 kcal/mol
10,CGTTTCACGTGAGTGA,0.18 kcal/mol
11,TTGGGCACGTGAGATG,0.15 kcal/mol
12,ATTTGCACGTGAACTG,0.36 kcal/mol
13,ATTTACACGTGATATG,0.23 kcal/mol
14,GGAGACACGTGGTAAG,0.14 kcal/mol
15,AAGTTCACGTGTGGAT,0.32 kcal/mol
16,TCAGTCACGTGAAGTA,0.25 kcal/mol
17,TGAGTCACGTGGCGAT,-0.01 kcal/mol
18,GTGATCACGTGAGAAG,0.43 kcal/mol
19,AGTGCCACGTGTGCGT,-0.11 kcal/mol
20,TTGAGCACGTGGTGGA,-0.08 kcal/mol
21,GAGGGCACGTGTTATC,0.06 kcal/mol
22,TTGTTCACGTGCATGA,0.14 kcal/mol
23,AGGGGCACGTGGAGCT,-0.07 kcal/mol
24,TTTGCCACGTGTGATG,0.04 kcal/mol
25,AATGGCACGTGTTTGT,-0.05 kcal/mol
26,GCGGTCACGTGTATGG,0.07 kcal/mol

row,Sequence,relative binding free energy
1,TGGTTCACGTGGGTAA,0.23 kcal/mol
2,AATGGCACGTGATAAT,-0.03 kcal/mol
3,AGGTCCACGTGAAGTG,0.14 kcal/mol
4,GTTGTCACGTGCTCGG,-0.01 kcal/mol
5,GAAGGCACGTGAGAGT,0.24 kcal/mol
6,ATTGGCACGTGCTCGG,-0.2 kcal/mol
7,CCAGGCACGTGGGTAG,-0.22 kcal/mol
8,TCGTACACGTGTGATT,0.14 kcal/mol
9,GAGAGCACGTGAGTGG,0.12 kcal/mol
10,GGTTGCACGTGGTCGG,0.09 kcal/mol
11,GTATCCACGTGAGTGG,0.24 kcal/mol
12,GGTTTCACGTGGCCTG,0.11 kcal/mol
13,TAAGTCACGTGGGAGA,0.07 kcal/mol
14,CGAGACACGTGGGAGT,0 kcal/mol
15,GGGGTCACGTGTGGGG,0.26 kcal/mol
16,ATGGTCACGTGAGAAT,0.41 kcal/mol
17,GTGGACACGTGGGGAA,0 kcal/mol
18,GGTGGCACGTGTGATG,0.11 kcal/mol
19,CGTGGCACGTGGATAG,-0.07 kcal/mol
20,ATAATCACGTGTGGAT,0.18 kcal/mol
21,AATGACACGTGGAAGT,0.11 kcal/mol
22,CGTAACACGTGGGTAA,-0.01 kcal/mol
23,CTTAGCACGTGCGTGT,-0.14 kcal/mol
24,TCAATCACGTGGGTCT,0.19 kcal/mol
25,CTTTTCACGTGACGTT,0.33 kcal/mol
26,TTTTCCACGTGCTGAG,0.27 kcal/mol

row,Sequence,relative binding free energy
1,CCAAGCACGTGGGGTG,-0.3 kcal/mol
2,TGGTGCACGTGGCGGT,-0.06 kcal/mol
3,TATGACACGTGAGTTA,0.16 kcal/mol
4,TGGGCCACGTGGCTTG,-0.06 kcal/mol
5,TTGTACACGTGCGGTT,0.09 kcal/mol
6,AAGTGCACGTGATAGG,-0.05 kcal/mol
7,GGTTTCACGTGGGCGC,0.19 kcal/mol
8,ATTAACACGTGATGTG,-0.01 kcal/mol
9,GTTTACACGTGAGGAG,0.22 kcal/mol
10,TGTAGCACGTGCGTAG,-0.12 kcal/mol
11,TAATACACGTGGGTAA,-0.08 kcal/mol
12,CTTTTCACGTGTTGCG,0.28 kcal/mol
13,TGTGGCACGTGTAGTT,0 kcal/mol
14,GAGGGCACGTGATTAA,0.12 kcal/mol
15,AAAGACACGTGAGTGG,0.16 kcal/mol
16,ATTAGCACGTGCTGGT,-0.05 kcal/mol
17,AGTAGCACGTGCTTAG,-0.09 kcal/mol
18,ATTAACACGTGGTATG,-0.25 kcal/mol
19,ACATTCACGTGGGTGT,0.17 kcal/mol
20,AATAGCACGTGGGGAG,-0.3 kcal/mol
21,CGAATCACGTGTGGTT,0.21 kcal/mol
22,TTATTCACGTGATGTT,0.31 kcal/mol
23,GGGCGCACGTGAGGCG,0.3 kcal/mol
24,ATGATCACGTGTTGGC,0.33 kcal/mol
25,GCTGCCACGTGGTGTT,-0.1 kcal/mol
26,GAGTGCACGTGTCGTA,0.04 kcal/mol

row,Sequence,relative binding free energy
1,TAGATCACGTGGTTTT,0.14 kcal/mol
2,TTGTTCACGTGCAAAG,0.24 kcal/mol
3,AGTATCACGTGGTTGA,0.09 kcal/mol
4,CGATGCACGTGGAATT,0.24 kcal/mol
5,GTTCTCACGTGAAGTT,0.41 kcal/mol
6,GGAGACACGTGCCGGG,-0.02 kcal/mol
7,GAATGCACGTGGGTTT,0.06 kcal/mol
8,GCCGGCACGTGTGAGT,0.09 kcal/mol
9,TTCGGCACGTGCGTGT,-0.18 kcal/mol
10,AGTTCCACGTGATATG,0.24 kcal/mol
11,GTTTCCACGTGGGACT,0.23 kcal/mol
12,GTTACCACGTGTCGTG,0.08 kcal/mol
13,CGGCGCACGTGGTGTG,-0.23 kcal/mol
14,GTGCGCACGTGGTTGC,-0.08 kcal/mol
15,TTTAACACGTGTGCGA,-0.12 kcal/mol
16,TGGGTCACGTGGTAAT,0.23 kcal/mol
17,CATGACACGTGAGTGG,0.04 kcal/mol
18,CTTAACACGTGTTATA,0.07 kcal/mol
19,TGTGTCACGTGTAAGT,0.02 kcal/mol
20,ATCTGCACGTGTGCGT,-0.07 kcal/mol
21,GGGGTCACGTGTGGTA,0.24 kcal/mol
22,TGTAGCACGTGATCGA,0 kcal/mol
23,CTTGACACGTGGGAAG,0.05 kcal/mol
24,GATTGCACGTGAATGA,0.31 kcal/mol
25,TGTTGCACGTGGTAGT,0.01 kcal/mol
26,TTTGTCACGTGAGGAC,0.14 kcal/mol

row,Sequence,relative binding free energy
1,TAGGACACGTGGAGAG,-0.09 kcal/mol
2,ATTAGCACGTGAATTG,0.26 kcal/mol
3,GTGGGCACGTGTGGTG,0.04 kcal/mol
4,GGGTACACGTGAGTCT,0.46 kcal/mol
5,GGACGCACGTGGAGTT,-0.04 kcal/mol
6,TGGGACACGTGCTGTA,0.04 kcal/mol
7,CGCGGCACGTGGAGGG,-0.22 kcal/mol
8,AGTCTCACGTGGGGAG,0.13 kcal/mol
9,AAATGCACGTGGTGCG,-0.07 kcal/mol
10,TGGACCACGTGTTGGG,0.1 kcal/mol
11,TATGTCACGTGCGGCT,0.09 kcal/mol
12,CATTTCACGTGTATTG,0.09 kcal/mol
13,GATTTCACGTGTGGAA,0.26 kcal/mol
14,CTAGGCACGTGTAGGT,-0.11 kcal/mol
15,GGAGACACGTGGATTG,0.08 kcal/mol
16,GCATACACGTGGGGGG,-0.02 kcal/mol
17,ATAAACACGTGGGTGA,-0.07 kcal/mol
18,CTTGACACGTGCGTGT,-0.15 kcal/mol
19,TTTTTCACGTGCTACG,0.19 kcal/mol
20,TTGAACACGTGAGGTT,0.28 kcal/mol
21,TGTTACACGTGGGGTA,-0.03 kcal/mol
22,CAGCGCACGTGGGCGG,-0.28 kcal/mol
23,AGTATCACGTGCAGGT,0.18 kcal/mol
24,GGTTTCACGTGACTGA,0.36 kcal/mol
25,TATGACACGTGAGGGG,0.28 kcal/mol
26,TGATACACGTGTGGTA,0.16 kcal/mol

row,Sequence,relative binding free energy
1,CTGTTCACGTGAATTG,0.31 kcal/mol
2,ATTGTCACGTGGATGA,0.14 kcal/mol
3,ATTATCACGTGGATAG,0.24 kcal/mol
4,TGCTGCACGTGCAGGG,-0.08 kcal/mol
5,TGTTGCACGTGCGAGC,0 kcal/mol
6,TTGTTCACGTGACGAG,0.4 kcal/mol
7,ATCAGCACGTGGTGTC,0.04 kcal/mol
8,AAATACACGTGGTTAT,-0.03 kcal/mol
9,GCTAACACGTGTTGGG,0.1 kcal/mol
10,AGGTTCACGTGGGGTT,0.2 kcal/mol
11,GTGTCCACGTGGTTGT,0.06 kcal/mol
12,CATAGCACGTGTCGGG,0.05 kcal/mol
13,CGTTTCACGTGTGTGC,0.23 kcal/mol
14,TGGCTCACGTGCGTTT,0.18 kcal/mol
15,AGGGGCACGTGTGAGC,-0.05 kcal/mol
16,ATAGACACGTGGAGTA,0.15 kcal/mol
17,AGGTACACGTGATGGT,0.11 kcal/mol
18,AGTCGCACGTGGATGA,0.01 kcal/mol
19,TGGATCACGTGGTAAG,0.03 kcal/mol
20,CGCTGCACGTGGTGGA,-0.16 kcal/mol
21,TTGTGCACGTGCAGTT,-0.13 kcal/mol
22,CAGGGCACGTGTGGAT,-0.03 kcal/mol
23,TGGCACACGTGGTCGG,-0.09 kcal/mol
24,GGGGTCACGTGGCTGC,0.03 kcal/mol
25,AGAGTCACGTGGGGGG,0.02 kcal/mol
26,TGTGGCACGTGCGGCA,-0.13 kcal/mol

row,Sequence,relative binding free energy
1,TGGGGCACGTGGCAGT,-0.12 kcal/mol
2,TTTATCACGTGCTGTC,0.35 kcal/mol
3,ATATTCACGTGAGGTA,0.41 kcal/mol
4,GGACTCACGTGGGTCG,0.15 kcal/mol
5,TAGTTCACGTGTTAGA,0.25 kcal/mol
6,TATTGCACGTGTGATG,0.1 kcal/mol
7,GTTAACACGTGTAAAT,0.15 kcal/mol
8,TGTTGCACGTGTAGGT,0.08 kcal/mol
9,CGTGGCACGTGGCATG,-0.26 kcal/mol
10,AATGACACGTGAGTAG,0.16 kcal/mol
11,TATTTCACGTGACATG,0.27 kcal/mol
12,TGATTCACGTGATGGC,0.24 kcal/mol
13,TGGAGCACGTGGACGG,-0.01 kcal/mol
14,TTAAGCACGTGCGTTT,-0.02 kcal/mol
15,GGCAACACGTGGGTGG,0.07 kcal/mol
16,GGAGGCACGTGGTTAC,0.03 kcal/mol
17,TTTGCCACGTGCGGTG,-0.22 kcal/mol
18,GAGGTCACGTGTTTCG,0.32 kcal/mol
19,CGGAACACGTGTGGGC,0.08 kcal/mol
20,TACGTCACGTGTATGT,0 kcal/mol
21,TCTGGCACGTGATTGG,0.08 kcal/mol
22,CAGGGCACGTGAGCGC,0.27 kcal/mol
